# Experimental data published in PubChem BioAssay AID485344 (National Center for Advancing Translational Sciences (NCATS), 2010).
# Screen size: about 340,000 compounds; about 6,900 (2%) were called active. Cut-off read from the data, not from the text of the source: active = inhibition above about 30%; inactive = below that, where a call was filed. The entries are a selection whose mix differs from that of the whole data set. The source gives no active or inactive call for entries shown without one.
# Molecular target: D(2) dopamine receptor (Homo sapiens) (UniProt P14416)
# Assay: HTS Assay for Allosteric Antagonists of the Human D2 Dopamine Receptor: Primary Screen for Antagonists; note: 0% is about no effect
# Conditions: HEK293 TREx D2 cells, calcium flux, dopamine EC80; at 10 µM; stronger effect = higher value
# How it was run: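 Dopamine at EC80 is the agonist stimulus; test compounds precede it by 180 s. Calcium flux read kinetically in a force-coupled, inducible HEK293 T-REx D2 cell line.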
# Chain of UniProt P14416 (P14416 whole entry, looked up): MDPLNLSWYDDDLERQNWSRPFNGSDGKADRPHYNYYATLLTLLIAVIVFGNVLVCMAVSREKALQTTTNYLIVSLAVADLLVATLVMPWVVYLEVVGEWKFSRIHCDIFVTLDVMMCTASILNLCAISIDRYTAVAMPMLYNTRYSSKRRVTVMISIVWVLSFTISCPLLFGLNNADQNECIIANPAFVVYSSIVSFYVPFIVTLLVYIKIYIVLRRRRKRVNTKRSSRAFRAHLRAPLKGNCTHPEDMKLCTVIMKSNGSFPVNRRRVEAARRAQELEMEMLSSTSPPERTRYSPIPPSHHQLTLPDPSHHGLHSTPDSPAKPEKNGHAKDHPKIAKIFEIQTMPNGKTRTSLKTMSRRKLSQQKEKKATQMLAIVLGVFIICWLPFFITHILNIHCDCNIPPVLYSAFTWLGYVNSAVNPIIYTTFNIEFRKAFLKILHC
row,SMILES,inhibition
1,O=C(CSc1c2c(nc3ccc(Cl)cc13)CCCC2)N1CCCCC1,-11.6%
2,CCCCC1=CC2=C(c3ccco3)C(=O)C(C)(OC(=O)c3ccc(OC)cc3)C(=O)C2=CN1Cc1ccc2c(c1)OCO2 (stereo unspecified),active: 33.2%
3,Cc1ccccc1OCC(=O)Nc1ccc(S(=O)(=O)Nc2ncccn2)cc1,-5.97%
4,Cc1ccc2c(c1)N(CC(=O)NCc1cccc(Cl)c1)C(=O)c1cccnc1O2,-2.52%
5,COc1ccccc1Cn1c(CNS(=O)(=O)c2c(C)cc(C)cc2C)nc2cccnc21,-22.1%
6,Cc1ccc(CN2C(=O)C3(SCC(=O)N3c3ccc(C)c(C)c3)c3ccccc32)cc1 (stereo unspecified),-8.71%
7,COC(=O)C1=C(c2ccccc2)c2ccccc2S(=O)(=O)N1CC(=O)Nc1cc(C)ccc1C,-17.6%
8,CCOC(=O)Cn1nc(N2CCN(c3ccc(F)cc3)CC2)ccc1=O,5.58%
9,CCOC(=O)c1cccc(NC(=O)CCc2c(C)nc3c4cccnc4nn3c2C)c1,-10.3%
10,Cc1cccc(N2CCN(c3c(CN4CCCC4)c(=O)oc4ccccc34)CC2)c1C,16.3%
11,Cc1c(C(=O)N2CCOCC2)oc2c1-c1nn(CC(=O)NCc3ccccc3)cc1CC2,2.07%
12,CSc1ccc(Nc2nn(-c3ccc(OC(F)(F)F)cc3)nc2C(C)=O)cc1,11.5%
13,Cn1c(=O)n(C)c2cc(CNCc3ccc(C(=O)O)cc3)ccc21,7.23%
14,CC1(C)C(C=C(Cl)Cl)C1C(=O)N/N=C/c1ccccc1F (stereo unspecified),active: 59.9%
15,COc1ccc(-c2onc(C)c2C)cc1S(=O)(=O)NC1CCCCC1,-1.54%
16,Cc1cccc(N2CCN(C(=O)Cn3nc(C)c4sc5ccccc5c4c3=O)CC2C)c1 (stereo unspecified),-9.06%
17,CCn1cc(C(=O)N(C)Cc2ccccc2)c(=O)c2cc(S(=O)(=O)N3CCCCC3)ccc21,-5.44%
18,CCOc1ccccc1NC(=O)c1ccc2oc(=O)c(S(=O)(=O)c3ccc(F)cc3)cc2c1,-7.89%
19,CN(C(=O)CSc1nc2ccc(NC(=O)c3ccc(F)cc3)cc2s1)c1ccccc1,-1.39%
20,COc1ccc(NC(=O)CCS(=O)(=O)c2cc(Br)cc3c2N(C(C)=O)CC3)c(OC)c1,18.6%
21,Cc1ccccc1CCNC(=O)c1cc2ccccn2n1,12.8%
22,COc1ccc(Cl)cc1CN1CCN(c2nc(C)cc(C)c2C#N)CC1,active: 41.3%
23,COc1ccccc1C1C(C(N)=O)=C(C)Nc2nc(SCc3ccccc3F)nn21 (stereo unspecified),-18.8%
24,Cc1c(C(=O)N(C)C)sc2c1c(=O)n(-c1ccc(Cl)c(Cl)c1)c(=O)n2Cc1ccc(F)cc1,23.4%
25,O=C(Nc1cccc(C(=O)OCc2cc(=O)n3nc(C4CC4)sc3n2)c1)c1ccc(F)cc1,-7.75%
26,CC(=O)c1ccc(S(=O)(=O)N2CCC(Oc3ccc(-n4cnnn4)cc3)CC2)cc1,-12.4%
